# Measured values reported in PubChem BioAssay AID504832 (National Center for Advancing Translational Sciences (NCATS), 2011).
# Out of some 310,000 compounds screened, about 18,000 (5.8%) were called active. The inconclusive results got no clear call from the source; some entries with a clear call stand among them for comparison. The call rests on the fitted dose curve; in most records, active means well fitted inhibition curve with a large enough effect; inconclusive means small, poorly fitted or top-dose-only effect, or another doubt; inactive means no such curve, though single readings can be large or run the other way. No potency is given beside an inconclusive call; the fits are too rough.
# Assay: Primary qHTS for delayed death inhibitors of the malarial parasite plastid, 48 hour incubation
# Conditions: P. falciparum luciferase growth in erythrocytes; series mostly up to 28.7 µM; activity change, negative = inhibition: at the top concentration
# Procedure, shortened: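 Parasite viability was followed by luminescence of a genomically integrated firefly luciferase. Cultures held 0.1% parasitemia at 2% hematocrit (final), incubated under 5% CO2 at 37 C.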
# On the % scale 0 is the no-effect control and ±100 the full control effect; potency means the concentration at half of the fitted maximal effect; tags describe the fitted curve by direction and shape.
Compound,Potency,"activity change, negative = inhibition"
Cc1ccc(-n2c(SCC(=O)N3CCN(c4ccccn4)CC3)nnc2N2CCCC2)cc1,active: 9.28 µM,–
O=C(N/C(=C/C=C/c1ccccc1)C(=O)N1CCOCC1)c1ccccc1Br,"inconclusive [inhibitor, full curve, poor fit]",–
CCOC(=O)c1ccc(NC(=S)NC(=O)COc2ccccc2)cc1,–,inactive: 8.88%
CC(C)(C)c1cc(C(=O)NCCCn2ccnc2)cc(C(C)(C)C)c1,"inconclusive [inhibitor, partial curve, poor fit]",–
Cc1cc(OC(C)C(=O)NCc2ccncc2)c2c(C)cc(=O)oc2c1 (centres undefined),"inconclusive [inhibitor, single point]",–
Cc1c([N+](=O)[O-])cc(C(=O)N2CCOCC2)cc1[N+](=O)[O-],"inconclusive [inhibitor, partial curve, poor fit]",–
COc1ccccc1C1=Nc2cccc3cccc(c23)N1,"inconclusive [inhibitor, single point]",–
C=CCN1C(=O)CSc2ccc(C(=O)NCc3cccs3)cc21,–,inactive: 6.96%
Cc1ccc(-n2c(SCc3cn4ccsc4n3)nc3ccccc3c2=O)cc1,"inconclusive [inhibitor, single point]",–
COc1ccc(NC(=O)NC2CCCCCCC2)cc1,–,inactive: 137%
Cc1cc(C)cc(NC(=O)CCCn2nc(C)c3c(C)n(-c4ccccc4)nc3c2=O)c1,–,inactive: 8.97%
O=C(COc1ccc([N+](=O)[O-])cc1)N1CCN(c2nnc(-c3ccccc3)c3ccccc23)CC1,–,inactive: 7.71%
C=CCn1c(=N)c(C(=O)NCCCOC)cc2c(=O)n3ccccc3nc21,–,inactive: 11.3%
CC(C)n1ncc2c(C(=O)N3CCN(Cc4ccc(Cl)s4)CC3)cc(C3CC3)nc21,active: 13.1 µM,–
COc1cccc(NC(=O)NC2CCN(Cc3nnnn3Cc3ccc(F)cc3)CC2)c1,"inconclusive [inhibitor, partial curve, poor fit]",–
Fc1ccc(N=c2ssnc2Cl)c(F)c1,"inconclusive [inhibitor, single point]",–
CC(C)(C)c1ccc(C(=O)NC(=S)N2CCCC2)cc1,"inconclusive [inhibitor, partial curve, poor fit]",–
CCN(CC(=O)Nc1c(F)cccc1F)C(=O)Cc1ccc2c(c1)CCC2,–,inactive: -25.7%
CCC/C=C(\CCC)C(NS(=O)(=O)c1ccc(C(F)(F)F)cc1)c1ccccc1 (centres undefined),active: 9.28 µM,–
O=C(NCc1ccccc1F)C(=O)NCC1CCCN1S(=O)(=O)c1ccccc1 (centres undefined),"inconclusive [inhibitor, partial curve, poor fit]",–
C[C@@H]1CC2[C@@H]3C[C@H](F)C4=CC(=O)C(Cl)=C[C@]4(C)[C@@]3(F)[C@H](O)C[C@]2(C)[C@@]1(O)C(=O)CO (some centres undefined),"inconclusive [inhibitor, single point]",–
O=C(Nc1cccnc1)c1ccc(Br)s1,–,inactive: 48.8%
CC(=O)N1CCC(C(=O)Nc2cc(C)cc(C)c2)CC1,"inconclusive [inhibitor, single point]",–

Compound,Potency,"activity change, negative = inhibition"
COCCN=c1scc(-c2ccccc2)n1/N=C/c1c[nH]c2ccccc12,"inconclusive [inhibitor, partial curve]",–
CCN(CC)S(=O)(=O)c1cccc(C(=O)N/N=C/c2c(C)nn(-c3ccccc3)c2Cl)c1,"inconclusive [inhibitor, partial curve]",–
O=C1CC(c2ccccc2)CC(O)=C1C=NC1CCCC1 (centres undefined),"inconclusive [inhibitor, single point]",–
Cc1ccc(-c2csc(SCC(=O)c3c(N)n(C4CC4)c(=O)[nH]c3=O)n2)cc1,–,inactive: 1.3%
CSc1nc(NCCCN(C)C)c2c3c(sc2n1)CN(C)CC3,"inconclusive [inhibitor, single point]",–
CN(Cc1cccs1)C(=O)COc1ccc(-c2nnco2)cc1,–,inactive: -11.3%
COc1cccc(C(=O)Nc2ccc(-c3nnc(-c4ccco4)o3)cc2)c1,active: 4.65 µM,–
Nc1nc(SCC(=O)N2N=C(c3ccc(Cl)cc3)CC2c2ccco2)n[nH]1 (centres undefined),"inconclusive [inhibitor, partial curve, poor fit]",–
CC(C)c1ccc(NC(=S)NCCc2c[nH]c3ccccc23)cc1,"inconclusive [inhibitor, single point]",–
COc1cc(CNCCc2ccccc2)cc(Cl)c1OCc1ccccc1,active: 8.28 µM,–
CCOc1ccc(C(O)(CCC(C)C)C(CN2CCOCC2)c2ccccc2)cc1 (centres undefined),active: 7.38 µM,–
CCCc1cc(=O)[nH]c(SCC(=O)Nc2nc3ccc(OCC)cc3s2)n1,–,inactive: 20%
O=C(Nc1ccnn1C1CCN(Cc2ccccc2OC(F)F)CC1)c1cccnc1,"inconclusive [inhibitor, partial curve]",–
CN(C)CCNc1ncnc2c1sc1nc(-c3ccccc3)c3c(c12)CCCC3,"inconclusive [inhibitor, single point]",–
O=C1c2cccc3cccc(c23)C(=O)N1OS(=O)(=O)c1ccccc1,"inconclusive [inhibitor, single point]",–
COC(=O)c1ccc2c(=O)n(CCCCCC(=O)NC(C)C)c(=O)[nH]c2c1,"inconclusive [inhibitor, single point]",–
COc1cccc(C2(CSc3nnc(-c4cc(OC)c(OC)c(OC)c4)o3)OCCO2)c1,"inconclusive [inhibitor, partial curve, poor fit]",–
Cc1ccccc1OCCCSc1nc2ccccc2[nH]1,–,inactive: 7.18%
C=CCN(c1ccccc1)S(=O)(=O)c1cccc(C(=O)NCC(c2ccc(F)cc2)N2CCOCC2)c1 (centres undefined),active: 13.1 µM,–
COc1ccc(S(=O)(=O)NCCCN2CCOCC2)cc1F,"inconclusive [inhibitor, full curve, poor fit]",–
Cc1cccc(NC(NC(=O)Cc2ccccc2)C(Cl)(Cl)Cl)c1 (centres undefined),"inconclusive [inhibitor, single point]",–
COc1ccccc1N(CC(=O)NC1CCCCC1)C(=O)Cn1nnc(-c2ccc(C)o2)n1,"inconclusive [inhibitor, single point]",–
O=C(CNC(=O)N1CC(=O)Nc2ccccc21)NCc1ccccc1Cl,"inconclusive [inhibitor, full curve]",–

Compound,Potency,"activity change, negative = inhibition"
CCOc1ccc(N(CC(=O)N2CCN(c3ccc(F)cc3)CC2)S(=O)(=O)c2c(C)noc2C)cc1,active: 10.4 µM,–
CCOC(=O)c1c(-c2cccs2)csc1NC(=O)CC(C)C,"inconclusive [inhibitor, partial curve, poor fit]",–
CC(C)c1ccccc1OCC(=O)NCC(c1cccs1)N1CCOCC1 (centres undefined),"inconclusive [inhibitor, partial curve]",–
COc1ccc(C2(c3ccc(OC)cc3)NC(=O)N(CC(=O)Nc3ccc(C(N)=O)cc3)C2=O)cc1,"inconclusive [inhibitor, partial curve, poor fit]",–
Cc1ccc(Oc2ccccc2)c(NC=O)c1,–,inactive: 16.3%
Cc1nn(CC(=O)Nc2sc3c(c2C#N)CCC(C(C)(C)C)C3)c(C)c1[N+](=O)[O-] (centres undefined),–,inactive: -0.606%
O=C(O)c1ccc(/C=N/NC(=O)C2CC2(c2ccccc2)c2ccccc2)cc1 (centres undefined),"inconclusive [inhibitor, partial curve, poor fit]",–
COc1cc(C(=O)NCC(c2ccccc2)N(C)C)ccc1OCc1c(C)noc1C (centres undefined),"inconclusive [inhibitor, single point]",–
CCc1cccc(OCC(=O)Nc2ccc(S(=O)(=O)Nc3ccccn3)cc2)c1,–,inactive: -13.5%
CSc1nnc(-c2sccc2OCc2ccc(C)cc2)n1C,"inconclusive [inhibitor, partial curve, poor fit]",–
COCCCNC(=O)CSc1nc2ccccc2c(=O)n1CCc1ccc(S(N)(=O)=O)cc1,"inconclusive [inhibitor, partial curve, poor fit]",–
CCCCN(C(=O)C1CSC2(C)CCC(=O)N12)c1c(N)n(Cc2ccccc2)c(=O)[nH]c1=O (centres undefined),–,inactive: -8.39%
COc1ccc(CNC(=O)c2cc(-c3ccncc3)nc3c(C)cc(C)cc23)cc1OC,"inconclusive [inhibitor, partial curve]",–
Cc1cc(/C=N/NC(=O)CC2(C)OCCO2)c(C)n1-c1ccc(Cl)c(Cl)c1,"inconclusive [inhibitor, single point]",–
COc1cccc(/C=N/NC(=O)c2cc(-c3ccccn3)nc3ccccc23)c1O,"inconclusive [inhibitor, single point]",–
Cn1c(O)c(/C=N/Nc2ccccc2)c(=O)n(C)c1=O,–,inactive: -13.5%
Cc1ccc(Cl)cc1NC(=O)C(=O)N/N=C/c1ccc2c(c1)OCO2,–,inactive: 5.9%
Cc1ccccc1Nc1scc(-c2ccc(Br)cc2)[n+]1-c1ccccc1C,"inconclusive [inhibitor, single point]",–
CCOc1c(Cl)cc(CNCC(O)c2ccccc2)cc1OC (centres undefined),active: 4.15 µM,–
Fc1ccc(NC(=S)Nc2ccccc2OC(F)F)cc1Cl,"inconclusive [inhibitor, single point]",–
O=C(CCCCO)CCCCCCCC[C@H]1N[C@H](CO)[C@H](O)[C@@H]1O[C@@H]1O[C@H](CO)[C@@H](O)[C@H](O)[C@H]1O,–,inactive: -3.19%
Cc1ccc(-n2cccc2C(=O)NS(=O)(=O)c2ccc(C)cc2)cc1,–,inactive: 11.3%
COc1cc(C(=O)NNC(=O)c2ccc3ccccc3n2)cc(OC)c1OC,"inconclusive [inhibitor, single point]",–
